Laboratory results taken from the supplement of paper PMC3724861.
Some of the results follow.

tested on: T1, Caupolican (Caup) homeodomain DNA-binding domain; test: PBM E-score (8-mer, recovered from the published 9-mer minima) (E-score (dimensionless, -0.5 to 0.5)); Drosophila protein; higher = stronger relative binding preference, active = 0.31 or more
T1 sequence: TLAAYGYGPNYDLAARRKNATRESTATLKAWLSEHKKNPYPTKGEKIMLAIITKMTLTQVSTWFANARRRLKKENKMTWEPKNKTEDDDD
Method in brief: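 Caup's homeodomain DNA-binding domain (residues 214-303) was made by in vitro transcription and translation and applied at 100 nM to custom-designed protein binding microarrays. Each value is an enrichment score that gives relative binding preference for a short DNA word, with higher meaning stronger. The 8-mer values were recovered from published 9-mer scores, each of which was the minimum of its two constituent 8-mer scores. A cutoff of 0.31 marks candidate sites.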

Sequence | PBM E-score
ACGTCGTA | inactive: 0.128
CCGGTGGA | inactive: -0.155
AGTGATTG | inactive: 0.107
ACGAGTGG | inactive: -0.0696
TGGCCCAA | inactive: -0.2
CCACGGCG | inactive: -0.151
CTGTCGAC | inactive: 0.0515
GTTAATAA | inactive: 0.156
GCAAGACA | inactive: 0.0548
GGGCAGCA | inactive: -0.167
CCGACCAA | inactive: -0.0268
AGGCTCGA | inactive: -0.0902
CCACTCTC | inactive: -0.148
ACAGTCGC | inactive: -0.0513
ACGACACT | inactive: 0.122
AGCCCATC | inactive: -0.179
AGGGCCAA | inactive: -0.235
GAGTGGAA | inactive: -0.00388
CCGTCACG | inactive: -0.12
ACGTCAGC | inactive: 0.0443
GCTATGAC | inactive: 0.0289
AGCCAATC | inactive: -0.081
GAAGGCAA | inactive: -0.113

Sequence | PBM E-score
AAGATATG | inactive: 0.182
CCAAAGGC | inactive: -0.126
ACCTAGCA | inactive: 0.0379
TCCGAGCA | ≥ -0.0223
ACAGACGA | inactive: 0.126
AATGCGAT | inactive: 0.0847
AATCCAGG | inactive: -0.0254
CGTAGTAA | inactive: 0.145
CCGCAAAG | inactive: -0.0876
GCCCGATA | inactive: -0.0865
CACGTGAG | inactive: 0.0576
ACGTCTCA | inactive: 0.0185
GCACATAC | inactive: 0.00947
ACGGTTTC | inactive: -0.0218
GATAGTTA | inactive: 0.113
AATTCGAA | inactive: 0.104
CTGGTCGA | inactive: -0.0873
AGGAGCAA | inactive: -0.141
AGTATGCC | inactive: -0.0118
CATGGATC | inactive: -0.0478
CTAGCTCA | inactive: -0.0432
AGAATTCC | inactive: -0.0348
GACCTTGA | inactive: -0.0409

Sequence | PBM E-score
AGACGTTA | inactive: 0.0584
AAACATCA | inactive: 0.279
AGGTAGGG | inactive: -0.0801
ACTTCGAG | inactive: -0.0774
ATCGGCTC | inactive: -0.0107
ACACTTGG | inactive: 0.0202
GGTGCCAA | inactive: -0.0596
AAGTTCGG | inactive: -0.0146
CTGGACCA | inactive: 0.0005
AAGAGATG | inactive: 0.104
CACTATTC | inactive: 0.0377
CATGCACG | inactive: 0.126
AAGGATGA | inactive: -0.0152
ACGTTGAA | inactive: -0.0507
ATGCAACC | inactive: 0.0215
GCTACAAA | inactive: 0.0968
TGTCAGAA | inactive: 0.196
ACACAATC | inactive: 0.213
ATCGACCA | ≥ 0.00221
CGAGAATC | inactive: 0.0473
AAGCCCGA | ≥ -0.0775
AATAAGAC | inactive: 0.191
CGTCTAGC | inactive: -0.0601

Sequence | PBM E-score
CCCGCCTA | inactive: -0.0953
GGATTAAC | inactive: 0.0552
CCCCACGC | inactive: -0.311
ATGAGCCA | ≥ -0.00819
CGCCGCTC | inactive: -0.266
ATGATATC | inactive: 0.137
CAGACGGG | inactive: -0.128
AAATCCCG | inactive: -0.0314
AGGATTGC | inactive: -0.0996
TGATTGCA | inactive: 0.139
ACCCGCAC | inactive: -0.157
CAGGGATC | inactive: -0.124
AGGACTCG | ≥ -0.00964
GACAAATA | inactive: 0.218
CGCTATAC | inactive: -0.00455
GCGTCAGC | inactive: -0.13
GCTTGCCC | inactive: -0.272
CAGTACGG | inactive: -0.068
ATGTTTTG | inactive: 0.289
AGGCTACC | inactive: -0.102
CAAACGTA | ≥ 0.162
ACTGACCT | inactive: 0.0333
CTCTATCA | inactive: -0.0234

Sequence | PBM E-score
GGAAAACA | inactive: 0.239
GATTGGGC | inactive: -0.0969
GTACCGTA | inactive: 0.0122
CGATAAAC | inactive: -0.00292
GTCTCAGA | inactive: -0.079
CCAACGAC | inactive: -0.0205
ACCAGACC | inactive: 0.0148
ATAACGAC | inactive: 0.0916
GGGGAATA | inactive: -0.0595
TAAAACAA | inactive: 0.232
GATTAATA | inactive: 0.181
GATTAGTA | inactive: 0.205
CGACTCGC | inactive: -0.164
GTATGTTA | active: 0.321
AAGATATT | inactive: 0.0347
AGAATCCA | inactive: 0.0103
ACCTCCGG | inactive: -0.116
GAGAATTA | inactive: 0.0377
CTCTCCAG | inactive: -0.195
GACCGCTC | inactive: -0.194
ACGGTGTC | inactive: 0.0383
ACAGCGGC | inactive: -0.0913
CGATCTGA | inactive: -0.0153

Sequence | PBM E-score
AGCTCCCC | inactive: -0.236
ACGCTTCA | inactive: -0.0361
ATCTTCAC | inactive: 0.0337
GATTCAGA | inactive: 0.0563
CCCTACAG | inactive: -0.132
AAACCCGT | inactive: -0.0681
CCGGCTTA | inactive: -0.155
CCCGGTTC | inactive: -0.19
CACGTTCA | inactive: 0.0688
CATCTATC | inactive: 0.0165
AGTAGGTG | inactive: 0.124
TCGGGACA | inactive: 0.0786
GACCCTGA | inactive: -0.13
AAACCGCA | inactive: -0.137
TGCAGAAA | inactive: 0.0408
GCGCGATA | inactive: -0.0764
AGGACAAA | inactive: 0.139
CGGAACGA | ≥ 0.0391
GTCTAACA | inactive: 0.2
AGTTGTCC | inactive: 0.235
GTCTACGA | inactive: 0.0298
ATTGAGTC | inactive: 0.088
AAATTGCA | inactive: 0.128

Sequence | PBM E-score
AAGTTAAC | inactive: 0.211
ACTATCTC | inactive: 0.0489
CGTATGTC | inactive: 0.145
CAACTCTC | inactive: -0.0186
CCAATCCC | inactive: -0.0731
ACCAGTCA | inactive: 0.0961
ATAAATTA | inactive: 0.171
CACCATAC | inactive: -0.00193
GTTGACGA | inactive: 0.0666
GTTTACTA | ≥ 0.235
GGCGTTTA | inactive: -0.0266
TACACCCA | inactive: 0.147
CAAATTTG | inactive: 0.0135
GTTTCTAA | inactive: 0.0726
CAGTGCAA | inactive: 0.0499
CAGGGGGA | inactive: -0.243
GAGTCTAC | inactive: -0.068
ATGTTGAC | active: 0.322
AAAGCTTC | inactive: -0.127
ATATCGAT | inactive: 0.154
CTATGCTA | inactive: 0.0866
TTAATGAA | inactive: 0.121
CTATCAAC | inactive: 0.14

Sequence | PBM E-score
GCTTCCCA | inactive: -0.17
GGACATCC | inactive: 0.163
CCAAAGGG | inactive: -0.202
ACAGCAGA | inactive: 0.067
CCTTGCGC | inactive: -0.226
CCTACACG | inactive: 0.18
ACGAAGAT | inactive: -0.0153
ACACTGTC | inactive: 0.157
CGCATAGC | inactive: -0.137
ACATCTTA | inactive: 0.207
ACTCGTCT | inactive: 0.065
AATTTCAC | inactive: 0.0568
AAGCACTC | inactive: -0.0449
GCGGAGCA | inactive: -0.216
AAGGTCAG | inactive: -0.055
AGTCCGCG | inactive: -0.0778
GAGTGAGC | inactive: -0.0932
CTATTGGC | inactive: -0.0415
CGAGGGAA | inactive: -0.108
GGGAACAA | inactive: 0.211
CCAACTCC | inactive: -0.113
